Data: the RNAGym collection of RNA variant scans (doi:10.1093/nar/gkz1192)
Read counts are not given, so values of variants with three or more changes are uncertain.

B1: CPEB3 Ribozyme (parent)
chain: UAACAGGGGGCCACAGCAGAAGCGUUCACGUCGCAGCCCCUGUCAGAUUCUGGUGAAUCUGCGAAUUCUGCUGUAUAUCUC

Variants of: B1
Experiment: self-cleavage, relative activity (ratio to wild type); higher = more cleavage; in vitro, sequencing
Method in brief: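 After error-prone PCR and barcoding, CPEB3 ribozyme mutant libraries were transcribed with T7 RNA polymerase at 37°C for 5 hours, then given 15 min with DNase I before an EDTA stop, and they cleaved during both steps. Reverse transcription with template switching preceded Illumina sequencing. Relative activity divides a variant's cleaved/total read fraction by the unmutated ribozyme's. At least 5 reads were required per variant, and three batches were averaged.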

Row | Variant | self-cleavage
1 | G8A C12A U60A A64U U80C | 0.05
2 | G8A C14A A20U U41A | 0.08
3 | G8A C14U A20G A35G | 0.31
4 | G8A C14U C27U | 0.07
5 | G8A C14U C38G C40A A57G U58C | 0.03
6 | G8A C14U G30U U48C | 0.05
7 | G8A C17G U54C U60A | 0.08
8 | G8A C17U A21G U51A | 0.05
9 | G8A C23A C40A U49C U69C U72A U74C | 0.02
10 | G8A C23A U26C U54C C71U | 0.06
11 | G8A C23G A35U U54C U72G U78C | 0.1
12 | G8A C23G U25C U48C | 0.05
13 | G8A C23G U54A A57G | 0.05
14 | G8A C23U C62A U80C | 0.07
15 | G8A C23U U26C G42A U72G U78A | 0.03
16 | G8A C23U U54A U72A | 0.08
17 | G8A C29G U67G U74A | 0.1
18 | G8A C32G U69A | 0.42
19 | G8A C34A A65G U72A U80A | 0.41
20 | G8A C37A C39A A56G | 0.06
21 | G8A C37G A45G U80C | 0.06
22 | G8A C37U U49C A77U | 0.05
23 | G8A C38A A45U | 0.17
24 | G8A C38U A75G U76C | 0.08

Row | Variant | self-cleavage
25 | G8A C39A A65G | 0.18
26 | G8A C39A U48A U49A U72A | 0.18
27 | G8A C39G A56C A64G U72G U80C | 0.05
28 | G8A C39G A64G | 0.2
29 | G8A C39G A75C | 0.26
30 | G8A C39G U66C | 0
31 | G8A C40A A65G U72A | 0.13
32 | G8A C40A U67C C71A | 0.05
33 | G8A C44A U48C | 0.06
34 | G8A C59A G73C | 0.06
35 | G8A G9C U26C U43G U69C U76C U78C | 0.05
36 | G8A G9U A15G U51C G55U A75G | 0.07
37 | G8A G9U U25C U58C U72C | 0.05
38 | G8A G9U U49C | 0.06
39 | G8A G10A A20G A21G C23A U41C U54C | 0.08
40 | G8A G10A A21U U26C A56G A64G | 0.16
41 | G8A G10A G55C | 0.18
42 | G8A G10A U25C U31C U54C U80A | 0.04
43 | G8A G10C C59A A75G U80G | 0.07
44 | G8A G10U A15U G16C U31C A65G | 0.13
45 | G8A G10U A28U U43C U51G U60C A65C | 0.03
46 | G8A G16U A18U | 0.06
47 | G8A G16U A57G | 0.05
48 | G8A G16U U26C A28G | 0.07

Row | Variant | self-cleavage
49 | G8A G19A U41G U49C U54C U58G | 0.07
50 | G8A G19C G61A | 0.16
51 | G8A G22A U41A U67A | 0.05
52 | G8A G22C A35G A45G U60C A65G U69A | 0.04
53 | G8A G24A U41C A56U U69C | 0.07
54 | G8A G33A A64G | 0.04
55 | G8A G33A G63A U72C | 0.06
56 | G8A G33C A57G | 0.07
57 | G8A G33C A57G A75G | 0.14
58 | G8A G33U U41A A57G | 0.05
59 | G8A G33U U41A C59U | 0.06
60 | G8A G33U U66C U69C A77U | 0.06
61 | G8A G46A U48C U49C | 0.18
62 | G8A G52A U67A U74C A75U U80C | 0.19
63 | G8A U25A U41C U54C U69C U78A | 0.05
64 | G8A U25A U43A C68U A77U | 0.04
65 | G8A U25C A28U | 0.04
66 | G8A U25C A35G A47G | 0.21
67 | G8A U25C A35G U41A C44U U49A U60A | 0.23
68 | G8A U25C A35U U48A U54C U60A | 0.11
69 | G8A U25C A45U U76G | 0.07
70 | G8A U25C A57U U72C | 0.07
71 | G8A U25C C29U U49C A56G U80C | 0.06
72 | G8A U25C C39U U72C U80G | 0.06

Row | Variant | self-cleavage
73 | G8A U25C C44A U49C | 0.05
74 | G8A U25C G52A U76C A77G | 0.05
75 | G8A U25C U26C U54C | 0.27
76 | G8A U25C U31C A35U U67G U80A | 0.05
77 | G8A U25C U41A U54C A64U | 0.06
78 | G8A U25C U41A U66C U80C | 0.08
79 | G8A U25C U41C U43C A47G U58C | 0.01
80 | G8A U25C U41C U48C C62U A77U | 0.11
81 | G8A U25C U43A U60A | 0.06
82 | G8A U25C U43A U69C | 0.05
83 | G8A U25C U48C U66C | 0.06
84 | G8A U25C U49C U72C | 0.2
85 | G8A U25C U49C U76C | 0.06
86 | G8A U25C U51C | 0.17
87 | G8A U25C U72C | 0.06
88 | G8A U25C U74A | 0.36
89 | G8A U25G G61A U76C U80A | 0.04
90 | G8A U26A A28G | 0.06
91 | G8A U26A C29U G33A A64U U67C | 0.05
92 | G8A U26A G30U U58C | 0.07
93 | G8A U26A U51A A77G | 0.06
94 | G8A U26C A35G U48C U69C | 0.06
95 | G8A U26C A47G | 0.22
96 | G8A U26C A47U | 0.04

Row | Variant | self-cleavage
97 | G8A U26C C32A U41A G52U | 0.37
98 | G8A U26C U51A | 0.29
99 | G8A U26C U51G | 0.07
100 | G8A U26C U58C A64U | 0.06
101 | G8A U26C U60C | 0.09
102 | G8A U26C U60C U66G | 0.04
103 | G8A U26C U69G | 0.07
104 | G8A U31A A47C U60A U69A U80C | 0.06
105 | G8A U31A A64U U69A | 0.15
106 | G8A U31A C62A A77G U78C | 0.05
107 | G8A U31A U41A U69G | 0.05
108 | G8A U31A U41C U76C | 0.18
109 | G8A U31A U78C | 0.06
110 | G8A U31C A35U A56G | 0.05
111 | G8A U31C A47U U67G | 0.09
112 | G8A U31C C40U U66C U74C | 0.06
113 | G8A U31C C62A A64G | 0.32
114 | G8A U31C C62G | 0.11
115 | G8A U31C U41A U58C U69A U78C | 0.09
116 | G8A U31C U41C G42C U51C U60A | 0
117 | G8A U31C U67G U69A | 0.22
118 | G8A U31C U69C | 0.1
119 | G8A U31C U80C | 0.13
120 | G8A U31G C38U A45U U78A | 0.04

Row | Variant | self-cleavage
121 | G8A U31G U43C A45C | 0.26
122 | G8A U41A A77U U80C | 0.08
123 | G8A U41A C62A U72C | 0.06
124 | G8A U41C A64U U67C | 0.06
125 | G8A U41C U43A U60G | 0.09
126 | G8A U41C U60A A77G | 0.2
127 | G8A U41C U67C U72A | 0.09
128 | G8A U43A U49C A56U | 0.16
129 | G8A U43C A45G U67A U74G | 0.04
130 | G8A U43C A56G A64U U72C | 0.05
131 | G8A U43C A75G | 0.12
132 | G8A U43C A75U | 0.18
133 | G8A U48A G53C G63U | 0.11
134 | G8A U48A U49C | 0.03
135 | G8A U48A U54A U69A U76A | 0.05
136 | G8A U48C A64U U67A U69C A77U | 0.03
137 | G8A U48C A65G U72C U80C | 0.15
138 | G8A U48C U72C | 0.06
139 | G8A U49A A56G U67C U72C U78C U80C | 0.06
140 | G8A U49A C50A A64G U72C A77U | 0.02
141 | G8A U49C C59A U76C | 0.15
142 | G8A U49C U78C | 0.09
143 | G8A U51A A65G | 0.13
144 | G8A U51C A57C U69C | 0.06

Row | Variant | self-cleavage
145 | G8A U54A C62G U66A U72G U80C | 0.04
146 | G8A U54A U67C A75G U80G | 0.03
147 | G8A U54C A64U U66C A77G | 0.42
148 | G8A U54C C59A A64U G73C U80A | 0.04
149 | G8A U58C A64G | 0.29
150 | G8A U58C C59U A64U U69A U78A U80G | 0.03
151 | G8A U58C U60C U72C | 0.13
152 | G8A U60A G63A U69C | 0.07
153 | G8A U60A U67C U72A | 0.1
154 | G8A U60A U72A | 0.06
155 | G8A U60C A64U U69C | 0.31
156 | G8A U60C U80A | 0.47
157 | G8A U66C U80C | 0.19
158 | G8A U67A U80A | 0.2
159 | G8A U69A A75U | 0.26
160 | G8A U69C U74A | 0.07
161 | G8A U69G U80A | 0.16
162 | G8A U74A U76A | 0.14
163 | G8A U74C A75G | 0.32
164 | G8A U76C U80A | 0.08
165 | G8C A13C A21G U31A | 0.06
166 | G8C A13G A35G A45U A47U U58C G63U | 0.07
167 | G8C A13G G63A A64C | 0.2
